Assay results from article PMC4336329 (PLoS ONE, 2015).
Out of some 310,000 compounds screened, about 14,000 (4.5%) showed an effect of 50% or more. The effect is printed as a negative number. Some of the results follow.

Target: human ether-à-go-go-related gene (hERG) potassium channel (human, UniProt Q12809)
Experiment: primary screen, population patch clamp on CHO cells stably expressing hERG
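Note: peak tail current of the secondary pulse compared with the same well before compound.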

Chain of human ether-à-go-go-related gene (hERG) potassium channel (Q12809 whole entry, looked up): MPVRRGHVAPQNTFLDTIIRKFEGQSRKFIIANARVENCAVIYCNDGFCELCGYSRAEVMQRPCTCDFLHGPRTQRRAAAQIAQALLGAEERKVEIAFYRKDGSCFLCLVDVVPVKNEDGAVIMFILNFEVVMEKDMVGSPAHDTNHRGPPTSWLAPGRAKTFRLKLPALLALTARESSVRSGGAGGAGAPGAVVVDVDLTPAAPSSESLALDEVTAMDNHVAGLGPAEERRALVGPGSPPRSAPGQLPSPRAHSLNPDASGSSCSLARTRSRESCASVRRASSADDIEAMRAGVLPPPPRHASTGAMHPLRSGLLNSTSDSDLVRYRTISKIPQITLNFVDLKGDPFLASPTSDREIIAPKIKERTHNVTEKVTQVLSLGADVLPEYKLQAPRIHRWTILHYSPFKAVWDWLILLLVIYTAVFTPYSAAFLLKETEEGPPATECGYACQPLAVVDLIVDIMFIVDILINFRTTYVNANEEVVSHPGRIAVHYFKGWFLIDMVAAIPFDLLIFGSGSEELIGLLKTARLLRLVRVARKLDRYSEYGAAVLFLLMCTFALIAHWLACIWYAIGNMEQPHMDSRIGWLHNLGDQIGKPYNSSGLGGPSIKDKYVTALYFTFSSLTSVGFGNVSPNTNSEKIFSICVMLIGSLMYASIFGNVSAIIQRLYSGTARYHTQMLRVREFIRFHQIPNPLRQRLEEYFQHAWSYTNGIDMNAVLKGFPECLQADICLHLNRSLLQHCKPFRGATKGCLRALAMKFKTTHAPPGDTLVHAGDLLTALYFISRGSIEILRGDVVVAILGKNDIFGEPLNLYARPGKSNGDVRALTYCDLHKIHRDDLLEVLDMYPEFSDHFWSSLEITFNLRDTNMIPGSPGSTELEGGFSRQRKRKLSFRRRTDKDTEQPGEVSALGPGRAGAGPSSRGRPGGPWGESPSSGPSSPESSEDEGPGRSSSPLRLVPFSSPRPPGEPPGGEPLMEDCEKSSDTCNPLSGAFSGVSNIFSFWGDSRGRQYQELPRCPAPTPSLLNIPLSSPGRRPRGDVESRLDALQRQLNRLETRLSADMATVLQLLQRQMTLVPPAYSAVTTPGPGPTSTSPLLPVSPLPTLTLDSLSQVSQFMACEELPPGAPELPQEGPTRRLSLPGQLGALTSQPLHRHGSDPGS

| SMILES | hERG current change (%, negative = inhibition) at 10uM |
| --- | --- |
| C=CCNc1nc(Cl)nc(Nc2ccc(OC)cc2OC)n1 | 0.114% |
| CN(C(=O)CN1CCN(c2ccccc2F)CC1)C1CCCc2ccccc21 (centres unmarked) | -18.7% |
| COc1ccccc1CCc1nnc(CCC(=O)NC(C)Cn2nc(C)cc2C)o1 (centres unmarked) | 6.48% |
| CN(C)S(=O)(=O)c1ccc(Cl)c(NC(=O)COC(=O)CCSc2ccccc2)c1 | 1.82% |
| Cc1cc(C)n2nc(SCC(=O)c3cccs3)nc2n1 | 8.53% |
| CCCn1nc(Oc2nc(N(C)C)nc(N(C)C)n2)ccc1=O | 16.3% |
| CCOc1ccc(NC(=O)c2c(OC)cccc2OC)cc1 | -16.7% |
| CN1CCC(=NNC(=O)CN(c2ccc([N+](=O)[O-])cc2)S(=O)(=O)c2ccccc2)CC1 | -39.7% |
| CSc1ccc(CN(C)CC(=O)Nc2ccccc2C(=O)NC2CC2)cc1 | -39% |
| COC(=O)c1sccc1NC(=O)CN(C)NS(=O)(=O)c1ccc(F)cc1 | -3.4% |
| COc1ccc(NC(=O)CCCC2CCCCC2)cc1S(=O)(=O)N1CCCCC1 | -6.47% |
| Cc1cc(C)c(C(N)=O)c(Nc2cccc3ccccc23)n1 | 8.73% |
| CC1CCCCN1CCn1c(=S)[nH]c2cc3c(cc2c1=O)OCO3 (centres unmarked) | -29% |
| O=C(Nc1nc(-c2ccccn2)cs1)C1CCCC1 | -6.58% |
| CCN(CC)C(=O)CSc1ncnc2c(-c3ccc(OC)cc3)nsc12 | 30% |
| Cc1ccsc1-c1n[nH]c(=S)n1C1CCCCC1 | 14.6% |
| Cc1ccc(NC(=O)CCC(=O)N/N=C/c2ccc([N+](=O)[O-])o2)cc1C | -14.9% |
| O=C(O)Cn1c(-c2cscn2)nc2ccccc21 | 3.99% |
| COC(=O)C1=C(CSc2nc3ccccc3s2)NC(=O)NC1c1ccc(F)cc1 (centres unmarked) | 12.2% |
| O=C(O)c1ccc(-c2ccccc2C(F)(F)F)o1 | 7.73% |
| COc1ccc(N(CC(=O)N/N=C(\C)c2ccccc2)S(=O)(=O)c2ccccc2)cc1 | 13.2% |
| O=C(CS(=O)(=O)c1ccccc1)N1CCCCC1 | -0.275% |
| Cc1ccc(NC(=O)C(C)N2C(=O)c3ccccc3C2=O)c(C)c1 (centres unmarked) | 5.19% |

| SMILES | hERG current change (%, negative = inhibition) at 10uM |
| --- | --- |
| O=C(CC1CC2CCC1C2)N1CCN(S(=O)(=O)c2ccccc2[N+](=O)[O-])CC1 (centres unmarked) | -24.8% |
| COc1cccc(OCc2cc(C(=O)N(C)C3CC(C)(C)NC(C)(C)C3)no2)c1 | -25% |
| CC(C)(C)C1CCC(=NNC(=O)C(=O)NCc2cccnc2)CC1 (centres unmarked) | -1.21% |
| CC(NC(=O)CSc1nc(=O)cc(N)n1-c1ccccc1)c1ccccc1 (centres unmarked) | 8.17% |
| CCS(=O)(=O)c1nc(S(=O)(=O)c2ccc(Cl)cc2)c(NCCOC)s1 | 9.19% |
| CCOC(=O)c1c(NC(=O)/C=C/C(=O)O)sc(C)c1-c1ccc(C(C)(C)C)cc1 | 24% |
| O=C(NC1(C(F)(F)F)C(=O)Nc2c1c(=O)[nH]c(=O)n2Cc1ccccc1)c1ccc(Cl)cc1Cl (centres unmarked) | 21% |
| COc1ccc(/C=C/C(=O)Nc2cc(=O)n(C)c(=O)n2C)cc1 | -14.5% |
| COc1ccc(C)cc1S(=O)(=O)N(CC(=O)Nc1ccc2c(c1)OCCO2)Cc1ccccc1 | 0.77% |
| CCC(=O)Nc1nnc(-c2ccc(OC)cc2)o1 | 5.1% |
| O=C(NCc1ccc2c(c1)OCO2)c1ccc2c(c1)N(Cc1c(F)cccc1Cl)C(=O)CS2 | 9.51% |
| COc1ccc(NC(=O)c2cnc(SC)nc2)cc1 | 4.75% |
| COC(=O)c1cc2c(s1)-c1ccccc1OC2 | 0.157% |
| COc1cc(OC)cc(C(=O)Nc2nnc(-c3cccnc3)o2)c1 | 5.59% |
| C=CCN1C=C2C(=O)C(C)(OC(=O)CC)C(=O)C=C2C=C1CCCC (centres unmarked) | -5.39% |
| CC(=O)N1CCN=C1SCc1cccc(C)c1 | 2.5% |
| COc1cc(NC(=O)COC(=O)CCCC2=NS(=O)(=O)c3ccccc3N2)cc(OC)c1 | 14.4% |
| N#CCC(=O)Nn1c(=S)[nH]c2ccccc2c1=O | 18.5% |
| COc1ccc([N+](=O)[O-])cc1-c1[nH]c(-c2ccc(C(=O)O)cc2)nc1-c1ccccc1 | 3.16% |
| Cc1ccc(Nc2ncnc3c2cnn3C)c(C)c1 | 7.14% |
| COc1cccc(-c2c(-c3cc(OC)cc(OC)c3)n(C)c3ccc(-c4ccc5[nH]ccc5c4)cc23)c1 | 20.1% |
| Cc1cc(NC(=O)CSc2nc(C(C)C)nc3sc4c(c23)CCC(C)C4)no1 (centres unmarked) | 2.06% |
| CC1CCCN(C(=O)c2ccc3nc[nH]c3c2)C1 (centres unmarked) | 11.5% |

| SMILES | hERG current change (%, negative = inhibition) at 10uM |
| --- | --- |
| CCC/C(=N/NC(=O)c1ccccc1Cl)c1ccccc1 | -13.1% |
| CC(=O)c1cccc(NC(=O)CN2C(=O)NC(C)(c3ccc4c(c3)OCCCO4)C2=O)c1 (centres unmarked) | 12.4% |
| Cc1ccc2nc(N3CCN(C(=O)CCC(=O)O)CC3)nc(-c3ccccc3)c2c1 | 6.74% |
| CCn1ncc(NC(=S)Nc2ccc(OC)c(OC)c2)c1C(N)=O | 39.1% |
| CC(C)(C)NC(=O)COC(=O)c1ccc(Cl)cc1O | 18.8% |
| O=C(N/N=C/c1cccs1)c1cccnc1 | 7.99% |
| Cc1ccc(NC(=O)c2c(C)noc2-c2snnc2C)cc1 | -3.39% |
| CCOC(=O)CSC1=C(C#N)C(c2ccc(F)cc2)C(C(C)=O)=C(C)N1 (centres unmarked) | -3.72% |
| CN(C)/C=C/C(=O)c1ccn(S(=O)(=O)c2ccccc2)c1 | 23.6% |
| Cc1ccccc1-n1c(C)nnc1SCc1nc2ccccc2s1 | -8.28% |
| CC(=O)c1c[nH]c(C(=O)NCc2cccc(C(F)(F)F)c2)c1 | 13.3% |
| O=C(CN1CCN(c2ccccn2)CC1)Nc1ccc(F)cc1F | -5.02% |
| COc1cc(OC)cc(C(=O)Nc2ccccc2C(=O)N2CCCC2)c1 | -5.26% |
| CCc1nc2ccc(C(=O)NCc3ccco3)cc2nc1CC | -17.8% |
| Cc1ccc(C23CC4CC(CC(C(=O)N5CCN(C)CC5)(C4)C2)C3)cc1 | -28.7% |
| O=C(Cn1c(=O)sc2ccccc21)Nc1nc2c(s1)CCCC2 | 2.19% |
| O=C(N/N=C/c1ccco1)c1cc(=O)[nH]c2ccccc12 | 15.6% |
| Cc1ccc(-c2nn(-c3ccccc3)cc2/C=N/n2c(-c3ccncc3)n[nH]c2=S)cc1 | -2.75% |
| NC(=O)C1(N2CCCCC2)CCN(c2nc(-c3ccccc3)cs2)CC1 | -38.3% |
| CCCN(CCC)CCNC(=O)CN1C(=O)COc2ccc(S(=O)(=O)N3CCOCC3)cc21 | 8% |
| Cn1c(=O)c2c(nc(SCC(=O)NC3CCCC3)n2C)n(C)c1=O | 9.53% |
| CCCN1C(=O)c2cc(C(=O)Nc3ccc(OC)cc3OC)ccc2C1Nc1ccc(OC)cc1OC (centres unmarked) | -12.5% |
| COc1ccc(C(=O)N(C)Cc2ccccn2)cc1OC1CCN(C(C)C)CC1 | 9.45% |

| SMILES | hERG current change (%, negative = inhibition) at 10uM |
| --- | --- |
| O=C(O)CNC(=O)CCN1C(=O)c2ccccc2C1=O | -22.4% |
| O=C(Nc1ccc(Cl)cn1)c1ccccc1SCc1ccccc1 | 11% |
| O=C(O)c1ccc(COc2ccccc2Cl)cc1 | 17.9% |
| CCC(=O)Nc1ccc(C(=O)NNC(=O)c2ccc([N+](=O)[O-])cc2)cc1 | 13% |
| Cn1cnnc1SCCC(=O)Nc1ccccc1 | 5.07% |
| CC(C)N(Cc1ccccc1)C(=O)C1CCN(c2ncnc3c2nc2n3CCCCC2)CC1 | -45.2% |
| COc1ccccc1C1CC(c2ccc(Br)cc2)=NN1C(=O)c1cccnc1 (centres unmarked) | -32.9% |
| COC(=O)c1ccc(CNC(=O)C2CCC(=O)N(C3CCCCCC3)C2)cc1 (centres unmarked) | 4.17% |
| O=C1NC(c2ccccc2Cl)Nc2ccccc21 (centres unmarked) | -1.87% |
| Cc1ccc2[nH]c(=O)c3cc(C(=O)NCCC(C)C)sc3c2c1 | 3.64% |
| Nc1nc(SCc2ccccc2Cl)nc2nc3c(cc12)CCCC3 | -6.77% |
| CCOC(=O)c1cnc2c(C)c(Cl)ccc2c1NCCCN1CCOCC1 | -49.2% |
| CC(C)(C)n1nnnc1C(c1ccccn1)N1CCN(C(c2ccccc2)c2ccccc2)CC1 (centres unmarked) | 1.69% |
| CCc1ccc(N(CC(=O)NCC2CCCO2)C(=O)CCC(=O)Nc2nccs2)cc1 (centres unmarked) | -8.85% |
| COc1ccc2c(=O)cc(C(F)(F)C(F)(F)F)oc2c1 | 7.5% |
| Cc1cc(C)cc(NC(=O)c2ccc(NC(=O)c3ccco3)cc2)c1 | 17.5% |
| CCOc1ccc(NS(=O)(=O)c2ccc(C(=O)NCC(c3ccc(OC)cc3)N3CCCC3)cc2)cc1 (centres unmarked) | -34% |
| Cn1cnnc1SCC(=O)Nc1ccc(OCc2ccccc2)cc1 | 13.2% |
| Cc1cc(C(=O)Nc2ncn[nH]2)ccc1[N+](=O)[O-] | 26.3% |
| CCOC(=O)COc1ccc2c3c(c(=O)oc2c1)CCCC3 | 6.27% |
